Data as given in PubChem BioAssay AID1347120 (National Center for Advancing Translational Sciences (NCATS), 2019).
The whole screen tested about 390,000 compounds, of which about 930 (0.24%) were called active. Inconclusive results, whose numbers are uncertain, are shown with a selection of clear calls. Calls come from the whole dose curve; as a rule, active = well fitted activation curve with a large enough effect; inconclusive = small, poorly fitted or top-dose-only effect; inactive = no such curve, though single readings can be large or run the other way. Potencies beside an inconclusive call are fits to weak or partial responses and may not hold up.

Experiment: qHTS for Suppressors of FUS Proteinopathy: Primary screen using FUS-linked yeast assay; note: nearly all actives have a fitted effect of over 55% in size;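 for growth rescue (activation): plate controls were DMSO vehicle for no effect and reference control for full effect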
Conditions: S. cerevisiae FUS-expressing, OD600, 24 h; Potency: growth rescue; growth rescue (activation): at 76.6 µM (top of the series)
Summary of the method: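 Read-out: OD at 600 nm after 24hr at 30C, reporting rescue of FUS-induced yeast toxicity. Cells at OD 0.005 in galactose (2%) minimal medium; compounds tested in a dilution series; CP55940 titration from 92uM final as control.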
Potency is the fitted concentration of half-maximal effect; tags give direction and shape of the fitted curve.

| SMILES | Potency | growth rescue (activation) |
| --- | --- | --- |
| Cc1cccc(-n2cnc3cc(C(=O)NCc4ccccc4Cl)ccc32)c1 | inconclusive: 50.1 µM [activator, single point] | – |
| Cc1ccc(C=Nn2c(-c3n[nH]c4c3CCC4)n[nH]c2=S)s1 | – | inactive: 9.08% |
| Cc1cccc(-n2c(C)cc(C(=O)C(=O)Nc3nncs3)c2C)c1 | – | inactive: 19.4% |
| CN1CCN(CC(=O)Nc2nc(-c3c[nH]c4ccccc34)cs2)CC1 | inconclusive: 14.1 µM [activator, partial curve, poor fit] | – |
| Cc1ccc2nsnc2c1S(=O)(=O)NCc1cccnc1 | – | inactive: 4.01% |
| C=CC[C@@H](CC(=O)N(CCO)Cc1ccccc1)C(=O)N[C@H](COC(=O)[C@@H](CC=C)CC(=O)OC(C)(C)C)Cc1ccccc1 | inconclusive: 14.1 µM [activator, partial curve, poor fit] | – |
| Cc1nnc(NC(=O)c2ccc(N3CCCC3=O)cc2)s1 | – | inactive: 8.51% |
| CC(=O)C1=CCC(c2ccccc2Cl)N(S(=O)(=O)c2ccc(C)cc2)C1 (stereo not drawn) | inconclusive: 28.2 µM [activator, partial curve, poor fit] | – |
| CCOC(=O)Cc1csc(NS(=O)(=O)c2ccc3c4c(cccc24)C(=O)N3CC)n1 | inconclusive: 50.1 µM [activator, single point] | – |
| CN(C)CCNC(=O)c1ccc(-c2cn3c(-c4ccc(Oc5ccccc5)cc4)cnc3cn2)cc1 | inconclusive: 50.1 µM [activator, single point] | – |
| CC(C)(C)NC(=O)C(c1cc2ccccc2o1)n1c(=O)c(-c2cc3ccccc3[nH]2)nc2ccccc21 (stereo not drawn) | inconclusive: 35.5 µM [activator, single point] | – |
| CCN1C(=O)[C@H]2[C@@H](c3ccc(C)cc3)N3C(=O)N(c4cccc(Br)c4)C(=O)[C@@]3(Cc3ccccc3)[C@H]2C1=O | active: 35.5 µM | – |
| COc1ccccc1N1CCN(C(=O)Cn2ncc3c2-c2cc(C)ccc2OC3)CC1 | inconclusive: 28.2 µM [activator, partial curve, poor fit] | – |
| CS(=O)(=O)c1ccccc1C(=O)Nc1ccccc1Cc1ccccc1 | – | inactive: 11.1% |
| Cc1ccccc1NC(=O)C1(NC(=O)c2cccc(N3C(=O)CSC3c3ccccc3)c2)CCCCC1 (stereo not drawn) | inconclusive: 28.2 µM [activator, single point] | – |
| N#CC(C(=O)C12CC3CC(CC(C3)C1)C2)c1nc2ccccc2[nH]1 (stereo not drawn) | inconclusive: 15.8 µM [activator, partial curve, poor fit] | – |
| Cc1cc(O)c2c(C)c(CC(=O)NCc3ccccc3Cl)c(=O)oc2c1 | – | inactive: -1.43% |
| COc1ccc(CNC(=O)c2ccc(CN3C(=O)C(C)=C(c4ccc(C)cc4)S3(=O)=O)cc2)cc1 | inconclusive: 14.1 µM [activator, partial curve] | – |
